# Whole data set: some 33,000 sequences, median “E-score (-0.5 to 0.5)” near -0.016, cut for the highest 2% near 0.31. Some of the results follow.
# Target: Cst6 (UniProt P40535)
# Assay: PBM E-score (8-mer binding enrichment) (E-score (-0.5 to 0.5)); higher = stronger / more preferred TF binding; most listed sequences are background and not binding sites
# Settings: protein concentration: 200 nM; construct: GST-DNA-binding domain
# Outline: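 Detection of bound protein used fluorescent anti-GST, with scans normalised by masliner. The proteins were GST-tagged yeast transcription factors applied at about 100-200 nM to universal all-10-mer Agilent arrays made double-stranded by primer extension. Each ungapped eight-base word, pooled with its reverse complement, was scored with an E-score from the Universal PBM Analysis Suite.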
row,Sequence,PBM E-score
1,CCAACGCC,-0.0859
2,ATTGCAAC,-0.0853
3,AAACCGGG,-0.102
4,AACCCCAG,-0.195
5,AACTGCGA,-0.124
6,ATTTTTCC,0.148
7,CTGGAAGA,-0.0853
8,AACCCCCG,-0.402
9,GCTGCTGA,0.0238
10,AGGTGCGA,-0.148
11,AGAAAGAA,-0.00996
12,AACTTTCA,0.183
13,GCTCTCCA,-0.222
14,CTGACCGA,-0.193
15,AAAGAACC,0.0603
16,GCAGCGTA,-0.177
17,AAAGGCCT,-0.0918
18,TACTGATA,0.195
19,AGTCACAC,0.00702
20,CTTTTTGC,-0.00689
21,AGATGTAG,-0.0363
22,ATTTAGAC,0.126
23,GCGCGTAA,0.224
24,CTAGTTCA,-0.0835
25,AGGGATAG,-0.0446

row,Sequence,PBM E-score
1,AGATCGGC,-0.193
2,GAACGAGC,0.0755
3,AGGGTCGC,-0.112
4,AATAAGCA,0.112
5,CCGGGCTC,-0.273
6,ACGCCAAG,-0.0479
7,AGGACACG,-0.315
8,AATTATCA,0.356
9,AACTGGAC,0.0255
10,ATACGCAA,0.283
11,ACTGGGGA,-0.291
12,AGTCTTGA,-0.0596
13,AAGAAGCG,-0.146
14,CGATTCAC,-0.0177
15,ATGCCTAA,-0.0115
16,CTAACGTC,0.356
17,CGCTGGAG,-0.183
18,CACGAACG,-0.0536
19,ACCGCCTG,-0.277
20,ATCTACCA,0.0696
21,GAGTGACA,0.287
22,GAGGACTA,-0.193
23,GATGGTGA,0.237
24,CCCACCAC,-0.194
25,AACCTCCA,-0.33

row,Sequence,PBM E-score
1,GACTGCGA,-0.0927
2,GCGGGAAC,-0.197
3,AGGTGGTG,-0.0837
4,CTATAGAA,0.0598
5,GATGATCC,0.00428
6,CTAACCGC,-0.0163
7,CCGGAGAG,-0.191
8,ATGCTTTC,0.0982
9,GGTATTTA,0.0257
10,AAAAGAAG,0.193
11,ACGGACCG,-0.235
12,GAACTTGA,0.0972
13,ATTTCCCC,-0.104
14,GATGCACA,-0.0313
15,GTTGTCGA,0.00085
16,ATGATGTA,0.462
17,AGCACATA,-0.0193
18,ACTCGGGC,-0.157
19,AACTTTCC,-0.158
20,TACCTACA,0.0531
21,ATAAGAAA,0.327
22,ACTAACCG,-0.0177
23,ACCCGAGT,-0.174
24,TAGTCGGA,-0.176
25,CTAACTCC,-0.287

row,Sequence,PBM E-score
1,TTATCGAA,0.178
2,ATCGTAGA,-0.047
3,AACGAAAA,0.207
4,AACGAGAA,0.128
5,CTTACGTA,0.466
6,AAGTTATA,0.189
7,ACCGAACC,-0.196
8,ATGCTAGA,-0.171
9,GGCGTATA,0.0506
10,ACAAAGCG,0.12
11,GATTAACA,0.269
12,ACGGAGAC,-0.00801
13,GCTAGCGA,-0.0377
14,ATTACCGG,-0.0505
15,TCTAGTAA,0.182
16,CATCCTGG,-0.0537
17,ATGGATGG,-0.0464
18,CGGCTCGA,0.0507
19,ATTAGCAG,-0.107
20,AGTTTCGA,-0.15
21,CCATTGGC,-0.279
22,TCATTAGA,0.16
23,AGACCTGG,-0.288
24,TCGCGCCA,-0.0121
25,ATTACTAC,0.12

row,Sequence,PBM E-score
1,ACAGCCGT,0.157
2,CGTAGGAA,0.00913
3,TCCCGACA,-0.0435
4,AGACTTCA,-0.143
5,AATAAGAA,0.312
6,AAAGAATA,0.226
7,GTCCTCTA,-0.308
8,ATGGGCCC,-0.269
9,CAACGGAC,-0.0775
10,CTTCGTGC,0.0173
11,AGGGCGTC,0.0413
12,ATTTTACA,0.0693
13,CTCCCCTA,-0.32
14,CGCTTGCA,-0.00487
15,CGCCGCAG,0.171
16,TAGCCTCA,-0.177
17,CTCAATCC,0.0197
18,GGCGACTA,-0.115
19,ACGCCAGC,-0.0168
20,TACCACAA,0.156
21,AGCAGGCA,-0.208
22,AGTCGATC,-0.135
23,TCCTAACA,0.125
24,AAAACACC,0.166
25,ACGACAAA,0.199

row,Sequence,PBM E-score
1,CTTCAGCC,-0.212
2,ACGTAGCG,0.129
3,AAGAGTCT,-0.268
4,CAAGGTCG,-0.204
5,CGAGTTAA,0.142
6,CACTGAAG,0.0206
7,CGGGCCTC,-0.0749
8,AATTGGTA,0.0188
9,CCATTAGC,-0.0497
10,CGATTCAG,0.0233
11,GCTGTCTA,-0.161
12,CGTGCCTA,-0.0374
13,CTCAGGCC,-0.258
14,ATCCCCCC,-0.428
15,ACCGCAAC,0.0509
16,CGTATATC,0.086
17,CGCCAGGC,-0.181
18,CTTTTCCA,-0.0772
19,AGTACTCG,-0.0502
20,ACTCCGCT,-0.265
21,AGGTTAGA,-0.25
22,AGTTCACA,0.0399
23,TCAATCAA,0.12
24,ATGGAGTG,-0.152
25,ACTATCAT,0.193

row,Sequence,PBM E-score
1,AAGTGAAG,-0.0822
2,AAACGGCT,0.105
3,GCATGCAC,0.0382
4,CCGAATCA,-0.0161
5,GCCATTAA,0.102
6,ACAGTCCC,-0.391
7,TAGGGGAA,-0.175
8,CCTTGAAG,-0.00459
9,ACCCCATA,-0.17
10,AGAAGGAT,-0.0435
11,GCGTTATA,0.0248
12,GACTCCCA,-0.274
13,TACGTGCA,0.186
14,CACATCAA,0.162
15,GGGTCGTA,-0.173
16,GACACGAA,-0.0508
17,AGCTCTAG,-0.121
18,GAATCAAC,0.16
19,CATGGGTC,-0.0524
20,ATCCTGTA,0.0281
21,AGCAAATG,-0.0221
22,TAGAGACA,-0.0631
23,GGCATTAC,0.3
24,GAGATCTC,-0.183
25,CTGCGTCC,-0.11

row,Sequence,PBM E-score
1,CAATCGGG,-0.116
2,GGCTTTAA,0.0896
3,ATCGTGAG,-0.0624
4,CGCGTCAA,0.211
5,ATACTAAA,0.264
6,AGCCAAAC,0.0206
7,CGAATCTC,-0.13
8,GCACGCAA,-0.0783
9,CGCCTAGC,-0.238
10,CGCCTACA,-0.107
11,AGTAACAA,0.147
12,CTACAGAG,-0.0332
13,GGAATATA,0.0672
14,ATGGTGGC,-0.249
15,GGAACGGA,-0.1
16,AAAAGTGA,0.306
17,GAGTCATA,0.144
18,ATATTTAC,0.175
19,CCGAGCTA,-0.0807
20,CACGAGGA,-0.0299
21,CATGCAAG,-0.111
22,AGATGAGC,-0.0176
23,TATGTAGA,-0.0113
24,AGGCAAGG,-0.142
25,CGGCAGGC,-0.203

row,Sequence,PBM E-score
1,ACATATAC,0.0718
2,ACTGGGAT,-0.00304
3,ATGGACGG,-0.00168
4,CGTACGAC,0.122
5,CAGATCAC,0.00632
6,GGAGTCGA,-0.12
7,CGTAATTA,0.362
8,CGATGGAG,-0.0922
9,GTGATTCA,0.109
10,CGGCGGGC,-0.123
11,GGTAGTTA,0.0686
12,ACGCTGGG,-0.278
13,CCGCTGCC,-0.15
14,CAAATACC,-0.0912
15,ATGCGAGA,0.00294
16,ACGACGCC,-0.0481
17,CATCAAAG,0.0154
18,AAACCTTA,0.166
19,AAACTATA,0.0675
20,ACTACGTG,-0.0819
21,CAGTCCGC,-0.0766
22,CACCGTGG,-0.208
23,AGCTAAAG,-0.0194
24,GGCTGCGA,-0.142
25,TAGGATCA,-0.0491

row,Sequence,PBM E-score
1,AACGCGAG,-0.0274
2,GACACTTA,0.072
3,GCTGCAGA,-0.104
4,ATGTCAAA,0.237
5,AAACACTT,0.0247
6,GCCCCGGA,-0.247
7,GCAACCCA,-0.0438
8,ACACGCAA,0.131
9,GGCGCACC,-0.162
10,CCAAACCA,-0.12
11,AGACGTAT,0.144
12,AGTGATCA,0.0655
13,GTTATTAA,0.149
14,AACTGCAG,-0.112
15,ATAAAGGC,0.00148
16,ACCCGTAC,-0.0234
17,AGAACTCA,-0.0679
18,CGGGTCTA,-0.0428
19,AGTAGTGG,0.0114
20,ACTGACCC,-0.208
21,AGGCGGGC,-0.176
22,ACATGTCA,0.275
23,AATTAGAA,0.115
24,CTAGTCCA,-0.164
25,CCCGACCG,-0.311

row,Sequence,PBM E-score
1,GAATCGGA,0.0567
2,GGCAACGA,0.0637
3,ACGATACG,-0.00234
4,CGGTCTCC,-0.371
5,CGAAGGGA,-0.122
6,CAAAGTGA,0.0189
7,CAACCCCA,0.045
8,CAGACACC,-0.149
9,AGTTTGAT,0.0532
10,ATGTTCCC,-0.203
11,AACTGCAA,-0.0232
12,CTACGAAA,0.133
13,CATAAAGA,0.236
14,AGCACCAC,-0.28
15,TCAGTACA,-0.0324
16,GCCGTGCC,0.308
17,AATACCGT,0.213
18,CTCTGACA,0.0147
19,CCGCGGAA,0.0664
20,CCCGGACC,-0.291
21,CACCGTGC,0.202
22,CTTGAAGC,0.00152
23,GAACTCAC,-0.026
24,ATAGGCGC,0.0559
25,AGGAAAGC,-0.215

row,Sequence,PBM E-score
1,ACTAAAGT,0.038
2,CGACAATC,-0.101
3,CCCCGTCA,-0.0515
4,ACCCCTAG,-0.21
5,ACGTATAA,0.309
6,ATTCCAGC,-0.121
7,AGTCTTCC,-0.232
8,CGGATGCA,-0.223
9,GGTGAGAC,-0.129
10,GAATTTGC,0.0122
11,GCACTGAC,0.0294
12,GAGGACCA,-0.235
13,GGCTATGA,0.0687
14,TATTTGGA,0.19
15,CATAGGAA,0.0448
16,CCCAGACA,-0.219
17,CCACGAGA,-0.235
18,AGTCCTCC,-0.35
19,ACACCAGT,-0.0654
20,AGAACCCA,-0.156
21,GCCCTGGA,-0.278
22,CCCGATGC,-0.304
23,ACACAAAC,0.204
24,AAATGGGG,-0.119
25,CCACGTTA,0.138

row,Sequence,PBM E-score
1,ATAGGACA,-0.159
2,ACTATCCA,-0.164
3,CTAGAGTA,0.0702
4,ATCAATAG,0.191
5,CTCCCTCA,-0.195
6,AACCCTTC,0.0402
7,AATTCGTC,0.316
8,ATGGACCA,0.0101
9,AATCTAAT,0.21
10,CGGCGGAA,-0.0135
11,GTGTGTTA,0.197
12,ATCCGTGC,0.256
13,CGCGCAAC,-0.112
14,CATGCTCG,-0.0524
15,CAAAGGGC,-0.0204
16,ATGGGACG,-0.118
17,AAATGGCA,0.138
18,GTAGTATA,0.0544
19,AAGGCTTA,-0.0227
20,AGGCGCCG,0.325
21,AGTGTTAC,0.128
22,ACCGCATG,0.13
23,ACGCTTGA,0.132
24,CCGCAGCA,0.0617
25,ATTACCTG,0.14

row,Sequence,PBM E-score
1,CTTTTAAA,0.197
2,AAGGCCGT,0.0353
3,ATCGGAGC,-0.214
4,ATAAGGGA,0.0975
5,AACGTAAT,0.453
6,AGGCTCGC,-0.224
7,CGAAGGAA,-0.0308
8,ATTCTAAA,0.188
9,CCAGCCGC,-0.209
10,CCATTGAC,0.0303
11,AGATTAAA,0.211
12,TCCGTTCA,-0.0662
13,AGAGTACG,-0.0348
14,GAGGGACA,-0.22
15,ATGTTAAT,0.114
16,GCCGTTGA,0.126
17,GCTTATGA,0.058
18,GTTGTACA,0.171
19,GGCCATGA,0.00515

# Source: the supplement of paper PMC3334620
